Assay results published in PubChem BioAssay AID686979 (National Center for Advancing Translational Sciences (NCATS), 2013).
In all, about 420,000 compounds went through this assay and about 50,000 (12%) were called active. The shares of active, inactive and inconclusive entries below differ from those in the screen. Calls come from the whole dose curve; as a rule, active = well fitted inhibition curve with a large enough effect; inconclusive = small, poorly fitted or top-dose-only effect; inactive = flat fitted curve, though single readings scatter. No potency is given beside an inconclusive call; the fits are too rough.

Assay: qHTS for Inhibitors of human tyrosyl-DNA phosphodiesterase 1 (TDP1): qHTS in cells in presence of CPT; note: nearly all actives have a fitted effect of over 55% in size
Settings: chicken DT40 Tdp1-/-;hTDP1 cells + 20 nM CPT, ATP luminescence, 48 h; activity change, negative = growth inhibition: at 46.2 µM (top of the series)
Outline: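 Chicken DT40 Tdp1-/- cells complemented with human TDP1, 400 cells/well, exposed to compounds plus 20 nM camptothecin for at least 48 h at 37 C; viability read as ATP content by CellTiter-Glo luminescence.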
% is set by controls: 0 for no effect and ±100 for the full control effect; potency is the fitted concentration of half-maximal effect; tags give direction and shape of the fitted curve.

SMILES	Potency	activity change, negative = growth inhibition
COc1cccc(CC(=O)OCC(=O)Nc2nnc(-c3ccccc3)o2)c1	inactive	
CCOC(=O)C1=C(c2cccc(Oc3ccccc3)c2)NC(=S)NC1C (stereo unspecified)	inconclusive [inhibitor, partial curve, poor fit]	
CCCCCCN1C[C@@H](n2cc(-c3ccc(F)cc3)nn2)[C@H](O)C[C@@H]1c1ccc(Cl)cc1	active: 11.6 µM	
COc1ccc(C(CNC(=O)c2ccc(Cl)c(NC(=O)c3cccs3)c2)N2CCCC2)cc1 (stereo unspecified)	inconclusive [inhibitor, single point]	
COCCCNC(=O)CSc1nc(-c2ccc(OC)cc2)[nH]c1-c1ccc(OC)cc1	inactive	
CCCCN1C2=NCCCN2c2ccccc21	inconclusive [inhibitor, partial curve]	
Cc1ccc(N(CC(=O)NCc2ccc(F)cc2)S(=O)(=O)c2c(C)n[nH]c2C)cc1	inactive	
CCNC(=S)Nc1ccc(N2CCCCC2)cc1	inactive	
COc1ccc(C(=O)Nc2cc3cc(Cl)ccc3oc2=O)cc1OC	active: 5.8 µM	
Cc1nc2sccc2c(=O)n1N	inactive	
O=C(O)Cn1nc(-c2ccccc2)ccc1=O	inactive	
O=C(CN1CCN(Cc2ccccc2)CC1)Nc1ccccc1-c1ccccc1	active: 25.9 µM	
CCCC(=O)Nc1ccc(C(=O)NNC(=S)NC(=O)c2ccc(Br)o2)cc1	inconclusive [inhibitor, single point]	
Cc1nn(C)c(C)c1NC(=O)COc1ccccc1C#N	inactive	
O=C(NCCCNC(=O)c1cccs1)c1cccs1	active: 8.2 µM	
CC1CC(C)CN(S(=O)(=O)c2ccc3c(c2)CCN3C(=O)C2CC2)C1 (stereo unspecified)	inconclusive [inhibitor, single point]	
CCOc1ccc(C(=O)NCC(=O)NCC(c2ccco2)N2CCCCC2)cc1OCC (stereo unspecified)	inactive	
COc1ccccc1CN1C(=NC(=O)CCC2CCCC2)SC2CS(=O)(=O)CC21 (stereo unspecified)		inconclusive: -30.3% [inhibitor]
CN(c1ccccc1)S(=O)(=O)c1ccc(NC(=S)Nc2ccccc2)cc1	inconclusive [inhibitor, single point]	
COc1ccc(CNC(=O)c2ccc(CS(=O)(=O)c3ccc(OC)cc3)o2)cc1	inconclusive [inhibitor, single point]	
CC(C)(C)OC(=O)NCCCCCC(=O)N/N=C/c1coc2ccccc2c1=O	inactive	
COc1ccc(C(CC(=O)O)n2cnnn2)cc1 (stereo unspecified)	inactive	
COc1ccc(/C=N/NC(=O)C2c3ccccc3-c3ccccc32)cc1	inconclusive [inhibitor, partial curve]	
Cc1ccc(C(=O)CSc2nc3ccccc3c(=O)[nH]2)cc1C	inconclusive [inhibitor, single point]	
O=C(NCc1cccc(Br)c1)C1CC2Cn3c(nc4ccccc43)C2N1Cc1ccccc1 (stereo unspecified)	active: 18.4 µM	
CC1CCCN(C(=O)COC(=O)C2CCN(S(=O)(=O)c3c(Cl)cccc3Cl)CC2)C1 (stereo unspecified)	inconclusive [inhibitor, single point]	

SMILES	Potency	activity change, negative = growth inhibition
O=C(CCS(=O)(=O)c1ccccc1)N1CCN(c2ccc(F)cc2)CC1	inactive	
CCN(CC(=O)Nc1ccc(OC)c(OC)c1)CC(=O)Nc1ccccc1C(F)(F)F	inconclusive [inhibitor, single point]	
CCCCCCCN1CCN=C1Nc1ccccc1	active: 23.1 µM	
CCN(CC)c1nc(N)nc(N(c2ccccc2)c2ccccc2)n1	inconclusive [inhibitor, single point]	
CCOC(=O)c1c(C)n(C)c2ccc(OCC(O)CNCCc3ccccc3)cc12 (stereo unspecified)	inconclusive [inhibitor, single point]	
CC(=O)N1c2ccc(S(=O)(=O)NCc3ccc(Cl)cc3)cc2CC1C (stereo unspecified)	inconclusive [inhibitor, single point]	
CN1CCN(c2ccccc2NC(=O)c2ccc(N3CCCCC3)c([N+](=O)[O-])c2)CC1	active: 11.6 µM	
COc1cccc(-c2nn(C)c3sc(C(=O)NCc4ccc(C)cc4)cc23)c1	inconclusive [inhibitor, partial curve, poor fit]	
CCN(CC)C(=O)c1sc2c(c1C)c(=O)n(-c1ccc(OC)cc1OC)c(=O)n2Cc1cc(C)ccc1C	inconclusive [inhibitor, single point]	
CCOc1ccc(NS(=O)(=O)c2ccc3[nH]cc(C(=O)NC(C)CC)c(=O)c3c2)cc1 (stereo unspecified)	inconclusive [inhibitor, single point]	
NNC(=O)C1C(O)CCC2CN3CCc4c([nH]c5ccccc45)C3CC21 (stereo unspecified)	inactive	
O=C(O)C1=C(C(=O)Nc2ccc(F)c(Cl)c2)CCCC1	inactive	
O=C(CN1CCC(C(O)(c2ccccc2)c2ccccc2)CC1)Nc1cc(Cl)ccc1Cl	inconclusive [inhibitor, single point]	
O=[N+]([O-])c1ccc(Nc2ccccc2O)c2nonc12	inconclusive [inhibitor, single point]	
CCc1ccc(OCC(=O)Nc2ccc(-c3nc4ccccc4o3)c(O)c2)cc1	inconclusive [inhibitor, single point]	
Cc1ccc(C)c(N2CCN(C3C(=O)Nc4ccccc4-n4nnnc43)CC2)c1 (stereo unspecified)	active: 20.6 µM	
CC1CC(=O)Nc2ccccc2S1(=O)=O (stereo unspecified)	inactive	
CCOC(=O)c1cc(S(=O)(=O)NCc2ccc(F)cc2)[nH]n1		inconclusive: -35.6% [inhibitor]
O=C1c2ccccc2C(=O)N1OS(=O)(=O)c1ccc(F)cc1	active: 2.59 µM	
CCOC(=O)[C@H]1[C@H]2COc3ccc(Br)cc3[C@@H]2N2C(=O)CN(Cc3ccc(OC)cc3)C(=O)[C@@]12C	inconclusive [inhibitor, single point]	
CCOC(=O)c1cnn(-c2cc(C(C)(C)C)nc3c(-c4ccccc4)c(C)nn23)c1N		inconclusive: -31.6% [inhibitor]
CC1CCCCC1NC(=O)C1CCN(S(=O)(=O)c2cccc3nonc23)CC1 (stereo unspecified)	inactive	
NC1CCN(c2c(F)cc3c(=O)c(C(=O)O)cn(C4CC4)c3c2Cl)C1 (stereo unspecified)	active: 7.31 µM	
Cc1cccc(CN2CCN(C3CN(CCc4ccccc4)S(=O)(=O)C3)CC2)c1 (stereo unspecified)	inconclusive [inhibitor, single point]	
Cc1ccc(NC(=O)CSc2ncc3c(n2)-c2ccccc2N(C)S3(=O)=O)c(Cl)c1	active: 0.731 µM	
Cc1c(C)c2cccnc2c2ncccc12	active: 1.84 µM	

SMILES	Potency	activity change, negative = growth inhibition
Cc1cc(=O)n2nc(N3CCC(C(=O)NCc4ccccc4F)CC3)sc2n1	inactive	
CSCCC(NC(=O)c1ccco1)C(=O)NNC(=O)c1n[nH]c(=O)c2ccccc12 (stereo unspecified)		inconclusive: -19.1% [inhibitor]
CCN(CCCNC(=O)CSc1cc(=O)n(C)c2cc(Cl)ccc12)c1ccccc1	inconclusive [inhibitor, partial curve, poor fit]	
O=C(COc1ccc(-n2ccnc2)cc1)Nc1cccc(F)c1	inconclusive [inhibitor, single point]	
COCCn1c(=O)c(-c2ccc(F)cc2)nc2cnc(Oc3ccc(OC)cc3)nc21	inactive	
O=C(/C=C/c1ccc([N+](=O)[O-])cc1)c1cccs1	inconclusive [inhibitor, single point]	
CCc1nc2ccc(C(=O)NCCCn3ccnc3)cn2c1N(C)CCC(C)C	inconclusive [inhibitor, single point]	
Cn1c(=O)c2c(ncn2CC(=O)OCC(=O)NCc2ccccc2Cl)n(C)c1=O	inactive	
Clc1ccccc1OCc1nn2c(-c3ccncc3)nnc2s1	inactive	
CCc1ccc(CNC(=O)Cn2nc(C)c3c(C)n(-c4ccc(C)cc4)nc3c2=O)cc1	inconclusive [inhibitor, partial curve, poor fit]	
CC(C)CC(=O)NC(=S)Nc1ccc(N2CCN(C(=O)c3cccs3)CC2)cc1	inconclusive [inhibitor, partial curve]	
CCOc1ccc(C(=O)N2CCN(c3ccccn3)CC2)cc1OCC	inactive	
CCOC(=O)C1=NNC2(c3ccc(Cl)cc3)C(=O)N(c3ccc(C)cc3)C(=O)C12 (stereo unspecified)	inactive	
NC(N)=Nc1nc(-c2ccccc2)c2cc(F)ccc2n1	active: 20.6 µM	
CCC(CC)C(=O)Nc1cccc(-c2nc3ncccn3c2C)c1	inactive	
Cc1cccc(/C=C\c2ccccc2)n1	inconclusive [inhibitor, full curve, poor fit]	
C=CCSc1nnc(-c2cc3c(C(F)(F)F)nn(C)c3s2)n1C	inactive	
CCCc1nnc(NC(=S)Nc2ccccc2)s1	active: 4.61 µM	
Cc1ccn2c(NC(=O)C(C)(C)Oc3ccc(Cl)cc3)c(-c3cccs3)nc2c1	inconclusive [inhibitor, single point]	
CCCC(=O)n1nc(-c2ccco2)nc1N	inactive	
CC(C)Oc1ccc(C(=O)Nc2c3c(nn2-c2ccccc2)CS(=O)(=O)C3)cc1	inconclusive [inhibitor, single point]	
Cc1ccc(CCC(=O)Nc2ncc(Cc3cccc(Cl)c3Cl)s2)o1	active: 0.0231 µM	
Cc1ccc(-n2ncc(C(=O)NCc3ccc4c(c3)OCO4)c2C2CCN(C(=O)OC(C)(C)C)CC2)cc1C	active: 23.1 µM	
Cc1ccc(NCc2cccn2-c2nnc(N3CCC(C(=O)NCc4ccccc4C)CC3)s2)cc1	inconclusive [inhibitor, single point]	
